Data as given in PMC4336329 (PLoS ONE, 2015).
About 14,000 (4.5%) of roughly 310,000 compounds showed an effect of 50% or more. Effects have a minus sign here. The list shows a part of the results.

What follows are compounds tested against human ether-à-go-go-related gene (hERG) potassium channel (human, UniProt Q12809) (assay: primary screen, population patch clamp on CHO cells stably expressing hERG).
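Note: peak tail current of the secondary pulse compared with the same well before compound.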

Sequence of human ether-à-go-go-related gene (hERG) potassium channel (Q12809 whole entry, looked up): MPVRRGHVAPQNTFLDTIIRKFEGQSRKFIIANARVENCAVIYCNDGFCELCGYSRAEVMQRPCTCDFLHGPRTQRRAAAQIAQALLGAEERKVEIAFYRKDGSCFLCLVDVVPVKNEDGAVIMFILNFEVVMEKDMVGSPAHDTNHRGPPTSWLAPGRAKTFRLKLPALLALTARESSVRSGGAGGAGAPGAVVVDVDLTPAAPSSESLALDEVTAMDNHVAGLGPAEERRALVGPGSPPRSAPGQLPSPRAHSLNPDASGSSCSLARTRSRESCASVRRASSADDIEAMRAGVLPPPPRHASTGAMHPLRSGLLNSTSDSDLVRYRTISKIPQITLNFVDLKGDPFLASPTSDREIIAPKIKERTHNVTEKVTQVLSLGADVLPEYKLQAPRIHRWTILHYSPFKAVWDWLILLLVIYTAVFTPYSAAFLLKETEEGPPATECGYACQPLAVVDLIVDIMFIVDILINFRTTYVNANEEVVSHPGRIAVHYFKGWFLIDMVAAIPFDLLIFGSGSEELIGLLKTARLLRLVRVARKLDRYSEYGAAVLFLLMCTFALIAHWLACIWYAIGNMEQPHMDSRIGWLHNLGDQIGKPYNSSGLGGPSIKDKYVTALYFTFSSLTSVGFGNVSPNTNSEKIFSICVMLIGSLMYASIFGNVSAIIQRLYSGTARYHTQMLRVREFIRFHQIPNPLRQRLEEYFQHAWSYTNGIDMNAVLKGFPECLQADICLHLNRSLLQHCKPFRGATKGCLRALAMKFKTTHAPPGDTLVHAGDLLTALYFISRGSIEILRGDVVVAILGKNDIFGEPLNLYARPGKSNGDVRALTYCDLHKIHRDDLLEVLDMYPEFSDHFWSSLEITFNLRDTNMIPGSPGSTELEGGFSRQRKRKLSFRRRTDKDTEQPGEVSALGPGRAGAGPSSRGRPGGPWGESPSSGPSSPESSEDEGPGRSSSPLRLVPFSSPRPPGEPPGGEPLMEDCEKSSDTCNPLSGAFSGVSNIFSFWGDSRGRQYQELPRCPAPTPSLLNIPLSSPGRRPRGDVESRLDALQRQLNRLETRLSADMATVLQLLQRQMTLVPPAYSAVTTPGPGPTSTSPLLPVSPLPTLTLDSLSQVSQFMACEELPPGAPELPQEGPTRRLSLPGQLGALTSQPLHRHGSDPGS

SMILES | hERG current change (%, negative = inhibition) at 10uM
Cc1ccc(NCCc2ccc(C)nc2)cc1 | 7.27%
CCc1ccc(NC(=O)/C(C#N)=C\c2ccc(OC)c(C(=O)O)c2)cc1 | 19.9%
Cc1cc(C(=O)Nc2ccc(S(=O)(=O)Nc3onc(C)c3C)cc2)cs1 | 12.6%
Cn1c(SCC(=O)c2ccc(F)cc2)nc2cccnc21 | -0.414%
COc1ccccc1C(=O)NCC(=O)N1CC=C(c2ccccc2)CC1 | 6.76%
O=C(NCCCN1CCOCC1)c1cc(-c2ccc(O)cc2)on1 | -4.4%
Cn1nc(-c2ccc(C(=O)NC3CCCCC3)cc2)c2ccccc2c1=O | -52.4%
CN1CCCN(C(=O)/C=C/c2ccc(Cl)cc2Cl)CC1.Cl | -67%
CC(C)Sc1nnc(-c2c[nH]c3ccccc23)n1C | 1.3%
CCCNC(=O)OC[C@H]1O[C@H](CCO/N=C(\C)CCN2CCc3nc(-c4ccccc4)c(-c4ccccc4)cc3C2)C=C[C@@H]1Oc1ccc(OC)cc1 | -1.61%
Cc1cc(C)n(/N=C/c2ccccc2O)c(=O)c1 | 6.75%
CC1CCc2sc(C(=O)OCC(=O)NC(C)C)cc2C1 (stereo not shown) | 2.94%
Cc1cccc(NC(=S)N(CCN(C)C)C(C)c2ccco2)c1 (stereo not shown) | -32.6%
O=C(COc1ccc(S(=O)(=O)N2CCCCC2)cc1Cl)N1CCCC1 | -2.1%
COc1cc(/C=C/C(=O)OC(C)C(=O)Nc2c(C)n(C)n(-c3ccccc3)c2=O)ccc1OCC#N (stereo not shown) | 20.1%
O=C1NC2(CCN(Cc3ccccc3)CC2)Oc2ccccc21 | 4.57%
Cc1nccc(-c2cccc(NC(=O)c3ccccc3Cl)c2)n1 | 6.06%
Cl.O=C(O)c1cccc(Nc2ncnc3c2cnn3-c2ccccc2)c1 | 15.1%
COc1ccc(NC(=O)CSc2nnc(C)c(=O)n2N)cc1 | 3.36%
COc1ccc(NC(=O)COC(=O)c2cc(SC)ccc2Cl)c(OC)c1 | 19%
CC(C)OC(=O)C1=C2SCC(=O)N2C(N)=C(C#N)C1 | 12.5%
COc1ccccc1NC(=O)C(=O)NCCC1CCCCN1S(=O)(=O)c1ccccc1 (stereo not shown) | 19.7%

SMILES | hERG current change (%, negative = inhibition) at 10uM
COc1ccccc1CNC(=O)C(NS(=O)(=O)c1ccc2c(c1)OCCO2)C(C)C (stereo not shown) | 2.23%
Cc1ccc(-n2nc(C)c3c(-c4cccs4)c(C#N)c(N)nc32)cc1 | 7.34%
Cn1c(-c2ccsc2)c(-c2cccs2)c2cc(-c3ccc4[nH]ccc4c3)ccc21 | 4.63%
Cc1ccc(NC(=O)c2ccc3nc[nH]c3c2)nc1 | 18.4%
S=c1[nH]nc(COc2ccc(Cl)cc2)o1 | 31.8%
Cl.Fc1cccc(C2NCc3ccccc3-n3cccc32)c1 (stereo not shown) | -9.2%
COc1ccc2cc(C(c3nnnn3C(C)(C)C)N3CCc4ccccc4C3)c(=O)[nH]c2c1 (stereo not shown) | -24.1%
CC(=Nc1ccccc1N)c1c(O)n(C)c(=O)n(C)c1=O | 21%
O=c1c2c(-c3ccc([N+](=O)[O-])cc3)ccnc2[nH]n1-c1ccccc1 | 19.9%
Clc1ccc(-c2nnc3sc(-c4ccc(Br)o4)nn23)cc1 | 12.4%
CC(Cc1ccccc1)N1Cc2ccccc2C1 (stereo not shown) | -15.8%
CN(c1ccccc1)S(=O)(=O)c1cccc(NC(=O)Cc2ccc(Cl)cc2)c1 | 9.43%
CCOP(=O)(OCC)/C(C#N)=C/c1ccc(Br)cc1 | -13.5%
CC(C)Cn1c(CN2CCN(C(=O)c3ccco3)CC2)nc2c1c(=O)n(C)c(=O)n2C | -12.2%
O=C(N/N=C\c1ccc(O)c([N+](=O)[O-])c1)c1ccccc1-n1cccc1 | 8.44%
CCOC(=O)C1=C(C)N(c2ccccc2)C(=O)C1CC(=O)O (stereo not shown) | 7.68%
CCN(CC)c1nc2nonc2nc1N(CC)CC | -2.82%
Cc1ccc(C(=O)c2coc3cc([N+](=O)[O-])c(O)c([N+](=O)[O-])c23)cc1 | 18.4%
O=C(/C=C/c1ccccc1)N1CCC[C@H]1CO | 6.12%
COc1ccc(N(CC(=O)N2CCc3ccccc32)S(=O)(=O)c2c(C)n[nH]c2C)cc1 | -18.6%
COc1ccc(-c2cc(C(=O)O)c(C)o2)cc1OC | 0.595%
CN(CC(=O)Nc1cccc(S(=O)(=O)N2CCOCC2)c1)CC(=O)Nc1ccc(Cl)c(C(F)(F)F)c1 | -13.6%

SMILES | hERG current change (%, negative = inhibition) at 10uM
C=CCNc1nc(-c2ccccn2)nnc1-c1ccccc1 | -3.49%
CC(=O)Nc1ccc(NC(=O)CSCCc2ccccn2)cc1 | 14.4%
Cc1c(N(C)C(=O)C2CCCN2S(=O)(=O)c2ccccc2)c(=O)n(-c2ccccc2)n1C (stereo not shown) | 14.2%
Cc1cc(C)n(-c2ccc(NC(=O)C3CCCCN3C(=O)c3occc3C)cc2)n1 (stereo not shown) | -4.52%
COc1ccc(-c2csc(Nc3cccnc3)n2)cc1 | 24%
O=C(O)C1CCN(C(=O)c2ccc3c(c2)OCO3)CC1 | 14%
CN(CC(=O)Nc1cccc(F)c1)C(=O)c1cc2c(s1)CCCCC2 | 11.7%
O=C(CN1C(=O)CCC1=O)Nc1cccc2c1C(=O)NC2=O | 5.07%
COc1cc2nc(NC(=O)c3ccc(Cl)cc3)sc(=O)c2cc1OC | 12.8%
COc1ccc(CNC(=O)[C@@H]2CC=C[C@@H]3CCN(C4CC4)C(=O)[C@@H]32)cc1 | 0.828%
N=c1c(C(=O)NCc2ccc3c(c2)OCO3)cc2c(=O)n3ccccc3nc2n1Cc1cccnc1 | -80.4%
O=C(O)c1cccc(Cl)n1 | 0.759%
COc1ccc(-c2csc(NC(=S)NC(=O)c3cccs3)n2)cc1Br | 3.71%
CCC(C)C1C(C#N)=C(N)Oc2n[nH]c(C)c21 (stereo not shown) | -0.113%
COC(=O)c1c(NC(=O)c2c(OC)cccc2OC)sc2c1C(C(=O)OC)CC2 (stereo not shown) | 1.5%
O=C(Cn1nc(C(=O)O)c2ccccc2c1=O)NCC1CCCO1 (stereo not shown) | 20%
Cc1cccn2c(CNCC(C)Oc3cccnc3)c(C(=O)N3CCOCC3)nc12 (stereo not shown) | -7.13%
COc1cccc(OCc2cc(C(=O)N3CCCC3c3ccccn3)no2)c1 (stereo not shown) | 5.99%
O=C1COc2ccc(C(=O)COC(=O)Cc3ccsc3)cc2N1 | -37.5%
CSCCC(NS(=O)(=O)c1cccs1)C(=O)NCc1cccs1 (stereo not shown) | -2.1%
CCn1ccnc1CN(C)Cc1c(C(=O)N2CCCCCCC2)nc2ccc(Cl)cn12 | -37.1%
Cc1noc(C)c1CSc1ccccc1C(=O)OC(C)C(N)=O (stereo not shown) | 19.2%

SMILES | hERG current change (%, negative = inhibition) at 10uM
CC(=O)c1cc(CN2CCCCC2)cc(OC(C)C)c1.Cl | 0.161%
O=C1CC(N(O)c2ccccc2)C(=O)N1c1ccc(Cl)c(Cl)c1 (stereo not shown) | 13.1%
O=C(CNC(=O)c1ccccc1)NCCc1nc2ccccc2[nH]1 | 3.07%
O=C(O)c1ccccc1N=Nc1ccc(O)cc1 | 4.01%
O=C(CSc1nc(-c2ccccc2)cc(=O)[nH]1)N1CCOCC1 | 5.84%
CC(C)COc1ccc(C(=O)CCN2CCCCC2)cc1.Cl | -41.4%
COc1ccc(C(=O)NCc2nnc(SCC(=O)N3CCCc4ccccc43)o2)cc1OC | -1.22%
CCOC(=O)C1CCN(S(=O)(=O)c2c(C)[nH]c(C)c2C(=O)N2CCCC2)CC1 | 8.25%
CN1CCN(c2ccccc2NC(=O)c2cccs2)CC1 | -47.5%
COC(=O)NNC(=O)C(c1ccccc1)c1ccccc1 | 12%
CCOC(=O)C1CCCN(C(=O)c2cnn3c(C(F)F)cc(-c4ccc(C)cc4)nc23)C1 (stereo not shown) | -38.4%
O=C(NCCCN1CCCC1=O)C1CCC(CNS(=O)(=O)c2ccc(Cl)cc2)CC1 (stereo not shown) | -0.675%
COc1ccc(Cl)cc1NC(=O)CN(C)C(=O)CN1C(=O)NC(C)(C)C1=O | 18.2%
Cc1ccc(N(CC(=O)N2CCOCC2)S(C)(=O)=O)cc1C | -10.5%
NS(=O)(=O)c1ccc(CCN2C(=O)CCC2=O)cc1 | 19.6%
O=C(Cn1cnc2c(nnn2Cc2ccc(Cl)cc2)c1=O)N1CCN(c2ccccc2)CC1 | -40.4%
Cc1cc(/C=C(/C#N)c2cccc(Cl)c2)c(C)n1C | -15.4%
O=C(CN1CCN(S(=O)(=O)c2ccc(F)cc2)CC1)Nc1cc(C(F)(F)F)ccc1Cl | -4.15%
CN(C)CCN(C(=O)c1ccc(S(=O)(=O)N(C)CC2CCCO2)cc1)c1nc2cc3c(cc2s1)OCO3.Cl (stereo not shown) | -43.2%
Cc1c(NC(=O)c2ccc(Cl)s2)c(=O)n(-c2ccccc2)n1C | 3.58%
COc1ccc(NS(=O)(=O)c2cccc(C(=O)N/N=C/c3ccc4c(c3)OCCO4)c2)cc1 | 8.67%
CNC(=O)[C@H](C)[C@@H]1C[C@@]1(C)[C@@H](NC(=O)OCc1ccccc1)c1ccccc1 | 1.03%
